About 14,000 (4.5%) of roughly 310,000 compounds showed an effect of 50% or more. Effects have a minus sign here. This is one part of the list.
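Further: peak tail current of the secondary pulse compared with the same well before compound.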

For the assay, the target named is human ether-à-go-go-related gene (hERG) potassium channel (human, UniProt Q12809). The assay is described as follows: primary screen, population patch clamp on CHO cells stably expressing hERG.
human ether-à-go-go-related gene (hERG) potassium channel, sequence (Q12809 whole entry, looked up): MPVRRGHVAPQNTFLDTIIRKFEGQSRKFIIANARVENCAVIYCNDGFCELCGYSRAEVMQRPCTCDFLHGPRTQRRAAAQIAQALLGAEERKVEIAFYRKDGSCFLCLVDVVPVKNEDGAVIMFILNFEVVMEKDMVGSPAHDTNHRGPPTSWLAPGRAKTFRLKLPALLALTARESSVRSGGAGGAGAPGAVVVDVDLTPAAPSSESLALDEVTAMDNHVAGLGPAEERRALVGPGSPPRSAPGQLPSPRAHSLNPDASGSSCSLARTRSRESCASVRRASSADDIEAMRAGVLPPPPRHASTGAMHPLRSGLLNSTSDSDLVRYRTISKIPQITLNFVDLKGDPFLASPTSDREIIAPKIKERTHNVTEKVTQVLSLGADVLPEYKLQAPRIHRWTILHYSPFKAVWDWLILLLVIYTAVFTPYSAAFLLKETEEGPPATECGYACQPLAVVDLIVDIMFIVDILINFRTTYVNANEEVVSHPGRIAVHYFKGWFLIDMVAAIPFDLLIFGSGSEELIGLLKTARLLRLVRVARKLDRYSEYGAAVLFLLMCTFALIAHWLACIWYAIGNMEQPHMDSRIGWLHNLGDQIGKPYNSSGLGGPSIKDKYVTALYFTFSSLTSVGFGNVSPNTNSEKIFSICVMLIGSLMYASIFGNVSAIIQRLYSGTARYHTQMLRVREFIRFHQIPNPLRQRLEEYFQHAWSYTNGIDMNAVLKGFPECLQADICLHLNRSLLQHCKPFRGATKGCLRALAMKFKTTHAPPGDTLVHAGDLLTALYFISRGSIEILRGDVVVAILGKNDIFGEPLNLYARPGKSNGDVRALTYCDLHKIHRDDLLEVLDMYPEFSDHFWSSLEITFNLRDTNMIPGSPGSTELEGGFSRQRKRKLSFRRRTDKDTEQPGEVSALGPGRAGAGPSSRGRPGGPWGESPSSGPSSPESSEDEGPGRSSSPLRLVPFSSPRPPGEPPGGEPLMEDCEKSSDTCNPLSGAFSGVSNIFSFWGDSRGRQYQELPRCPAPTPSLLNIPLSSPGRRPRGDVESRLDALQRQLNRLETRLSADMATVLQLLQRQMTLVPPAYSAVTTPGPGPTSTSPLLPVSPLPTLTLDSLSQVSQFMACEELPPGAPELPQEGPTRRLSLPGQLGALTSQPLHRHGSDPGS
`COC(=O)C1(CCSC)NC(c2ccc(O)cc2)C2C(=O)N(c3ccc(F)cc3)C(=O)C21` (stereo not shown): the “hERG current change (%, negative = inhibition) at 10uM” value is reported as -12.2%.

Take `COc1ccc(/C(O)=C2/C(=O)C(=O)N(CCCN3CCOCC3)C2c2ccc(OC)cc2)cc1` (stereo not shown): the “hERG current change (%, negative = inhibition) at 10uM” value amounted to 22.8%.

In the case of `CCOC(=O)C1=C(CN2CCOCC2)NC(=O)NC1c1cc(C)ccc1C` (stereo not shown), the “hERG current change (%, negative = inhibition) at 10uM” value is recorded as -9.37%.

Turning to `CCC(=O)c1ccc(OCC(=O)N2CCN(S(=O)(=O)c3ccc(Cl)s3)CC2)cc1`, the “hERG current change (%, negative = inhibition) at 10uM” value is -4.53%.

For `O=C(/C=C/c1cc(Br)ccc1O)c1ccco1`, the “hERG current change (%, negative = inhibition) at 10uM” value is -17.1%.

For `COC(=O)c1oc2ccccc2c1NC(=O)c1ccccc1O`, the “hERG current change (%, negative = inhibition) at 10uM” value was found to be 21%.

Consider `O=C(NCc1ccc(Cl)cc1)C(=O)c1cn(CC(=O)N2CCOCC2)c2ccccc12`, for which the “hERG current change (%, negative = inhibition) at 10uM” value is recorded as -2.31%.

Take `Cc1ccc(S(=O)(=O)N(CCCO)Cc2cc3c(C)ccc(C)c3[nH]c2=O)cc1`: the “hERG current change (%, negative = inhibition) at 10uM” value is -45.9%.

In the case of `CC1(C)CC2(CC(c3ccccc3F)c3cc(Cl)c(O)cc3O2)NC(=S)N1` (stereo not shown), the “hERG current change (%, negative = inhibition) at 10uM” value worked out at 28.9%.

With `Cc1ccc(-c2nc(CS(=O)CC(=O)N3CCN(c4ccccc4)CC3)c(C)o2)cc1` (stereo not shown), the “hERG current change (%, negative = inhibition) at 10uM” value is given as -31.3%.

As to `Cn1cc(Cl)c(C(=O)NNC(=S)NC2CCCCC2)n1`, the “hERG current change (%, negative = inhibition) at 10uM” value came out at 15.4%.

For `CCNc1nc(NCC)n2c(SCC(=O)Nc3ccc(C)c(C)c3)nnc2n1`, the “hERG current change (%, negative = inhibition) at 10uM” value is -8.06%.

In the case of `Clc1ccc(SCc2cn3ccccc3n2)cc1`, the “hERG current change (%, negative = inhibition) at 10uM” value is -18.1%.

For `N/C(=N\OC(=O)c1cccnc1)c1ccccc1Cl`, the “hERG current change (%, negative = inhibition) at 10uM” value was determined as 22%.

For `Cc1c(C(=O)Nc2nnc(C3CC3)s2)oc2c(Cl)cccc12`, the “hERG current change (%, negative = inhibition) at 10uM” value was determined as 8.02%.

Consider `O=C(c1ccco1)N1CCN(C(=O)N2CCOCC2)CC1`, for which the “hERG current change (%, negative = inhibition) at 10uM” value is recorded as -6.66%.

On to `O=C(NC(=S)Nc1ccccc1N1CCOCC1)c1ccc(-c2ccccc2F)o1`, for which the “hERG current change (%, negative = inhibition) at 10uM” value was 15.4%.

`CC(C)(O)C#Cc1ccc(CN2CCN(Cc3ccccc3)C(CCO)C2)cc1` (stereo not shown): the “hERG current change (%, negative = inhibition) at 10uM” value came to 12%.

Turning to `Cc1ccccc1NC(=O)CSc1ccc(-c2cccnc2)nn1`, the “hERG current change (%, negative = inhibition) at 10uM” value is listed as -29%.

In the case of `COc1ccc(NC(=O)C(NC(C)=O)C(=O)NCc2ccccc2)cc1` (stereo not shown), the “hERG current change (%, negative = inhibition) at 10uM” value worked out at 15%.

As to `COc1ccc(C(=O)Nc2ccc(-c3n[nH]c(=S)o3)cc2)cc1OC`, the “hERG current change (%, negative = inhibition) at 10uM” value stood at 24%.

Turning to `CCc1nnc(NC(=O)CCc2nc(C3=CCN(C)CC3)no2)s1`, the “hERG current change (%, negative = inhibition) at 10uM” value is 14.1%.

In the case of `CCOC(=O)CNc1nc2ccccc2n2c(C)nnc12`, the “hERG current change (%, negative = inhibition) at 10uM” value stood at 5.22%.

`Cc1cccc(N2CCN(C(=S)NCCc3ccccc3)CC2)c1C`: the “hERG current change (%, negative = inhibition) at 10uM” value is listed as -5.03%.

Turning to `O=C(N/N=C/c1cccc(Oc2ccccc2)c1)c1cc[n+]([O-])cc1`, the “hERG current change (%, negative = inhibition) at 10uM” value is reported as -5.76%.

Source of the values: publication PMC4336329 (PLoS ONE, 2015).
